Experimental findings from the supplement of paper PMC11417369 are described below.

The other results are listed elsewhere or left out.

In the test the test system is PF3D7_0420300 AP2 domain 1 (GST-tagged). In words: gcPBM binding intensity (ln(normalized median fluorescence intensity)); higher = stronger DNA binding. A digest of the protocol:
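The binding buffer was 1× PBS containing 1% milk, 0.2 mg/ml BSA, 0.5% salmon testes DNA and 0.03% Triton X-100. In it, GST-tagged P. falciparum DNA-binding domains expressed in E. coli were applied for 1 h to an Agilent 4 × 180k array of primer-extended double-stranded 36-bp intergenic genomic probes plus negative controls. Binding intensity, read with Alexa488 anti-GST antibody and a 488 nm scan, is the highest Masliner-normalised natural-log median intensity across replicate spots of either probe orientation.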
For the sequence “AAAATTATATATTATAGTACATAAAATATTGATAAA [XGTACX_site8988]”, the “gcPBM binding intensity (ln)” value turned out to be 9.05.

Turning to “AAATGTTATATATAATGTACTTGTAAGAACGTTCCT [XGTACX_site2840]”, the “gcPBM binding intensity (ln)” value came out at 9.21.

For the sequence “AATAATGTATGAAATAAACACACAAGTAAGTACATA [CACACA_site8776]”, the “gcPBM binding intensity (ln)” value amounted to 9.7.

Turning to “ATAATTTTAAATAAATGTACATATAGATGTGTGTAA [XGTACX_site3958]”, the “gcPBM binding intensity (ln)” value came out at 9.39.

On to “TTTTTTTTTTATGTTATTAAAAAAAAAAAAAATTAA [CACACA_negctrl_site222]”, for which the “gcPBM binding intensity (ln)” value is 8.56.

Regarding “AAGATACACTTAATCGCACACGAAATTATATATTTA [CACACA_site3063]”, the “gcPBM binding intensity (ln)” value turned out to be 9.23.

For “TATAACATTGTATGAATGCACTTTTATCTATTTTAA [GTGCAC_site9903]”, the “gcPBM binding intensity (ln)” value worked out at 9.17.

For the sequence “ATATATAATCATATGTGTACATATATATTAATTTAA [XGTACX_site2839]”, the “gcPBM binding intensity (ln)” value amounted to 9.17.

As to “AATTCAAAATAAAAATGTACATATATCAGAATATGG [XGTACX_site42]”, the “gcPBM binding intensity (ln)” value amounted to 9.35.

With “AAAAATAAGAAAAAGTGTACTTTATTATGTATATAT [XGTACX_site2305]”, the “gcPBM binding intensity (ln)” value is 9.2.

Consider “ATTATTTTTTTTCTTATACACACCATGCATCAAACT [CACACA_site2128]”, for which the “gcPBM binding intensity (ln)” value was found to be 9.46.

Regarding “ACTTGTAAGAAACACACACACACACCGATATATATA [CACACA_site4594]”, the “gcPBM binding intensity (ln)” value stood at 10.4.

In the case of “AAAAAAAAAAAAAAAACACACATTTAATGAACTTAT [CACACA_site1276]”, the “gcPBM binding intensity (ln)” value is 9.44.

In the case of “TATTGAAACCCACACGAACACACGTATTTCATAAAC [CACACA_site251]”, the “gcPBM binding intensity (ln)” value was found to be 9.56.

Turning to “TATAAAAAGCATAACACACACATGTCAATATAAATA [CACACA_site6648]”, the “gcPBM binding intensity (ln)” value is 9.78.

For the sequence “TACTTTTATATAGAAAGTACATACAATTCATAGAAT [XGTACX_site2182]”, the “gcPBM binding intensity (ln)” value came out at 9.11.

In the case of “TTTTTTTTTTTTTTGTGTACATATAATGCACATTAT [XGTACX_site6505]”, the “gcPBM binding intensity (ln)” value was 8.92.

In the case of “ATATATATATATATATGTACATATGTATGTGTTTGT [XGTACX_site397]”, the “gcPBM binding intensity (ln)” value was determined as 9.31.

For “TATACTCATTTTTATACACACTTGTTTTATAAAACG [CACACA_site4561]”, the “gcPBM binding intensity (ln)” value was 9.4.

On to “CTATATGTATAAAGTTGTACAGTTTTTCAAAGTTAA [XGTACX_site6652]”, for which the “gcPBM binding intensity (ln)” value was determined as 9.03.

For “TATATATTTTATTATTGTACGAATTATTTATTTTAC [XGTACX_site8105]”, the “gcPBM binding intensity (ln)” value is 9.3.

As to TACATCATCTATAAGGTGCATTTTAGTTCTATTAAA, the “gcPBM binding intensity (ln)” value worked out at 9.05.

On to “TTTTTTCTAATATCTTTGCCTTTTTCTTTATTTATT [CACACA_negctrl_site1053]”, for which the “gcPBM binding intensity (ln)” value was 9.52.

For “TTCATTTGAAAACTGTGTACTTAAAAATATACATAT [XGTACX_site176]”, the “gcPBM binding intensity (ln)” value worked out at 9.04.

For the sequence “AATATAATATAATGCACACATAAACAAAAAAAAAAT [CACACA_site1304]”, the “gcPBM binding intensity (ln)” value stood at 9.89.

“ATATATTTAAATAAATGTACAAATCATAAATTCAAG [XGTACX_site1417]”: the “gcPBM binding intensity (ln)” value was found to be 9.16.

On to “TACATATATATAAATACACACACACCCACCTTATAA [CACACA_site9346]”, for which the “gcPBM binding intensity (ln)” value came to 10.1.

For the sequence “ATACATATACACATATGTACATATGAAAAGAAAAAT [XGTACX_site6445]”, the “gcPBM binding intensity (ln)” value was 9.5.

“TTATTAGAAAAATGCACACCAAAAAAAAAAAAAAAA [CACACA_site2522]”: the “gcPBM binding intensity (ln)” value worked out at 9.26.

As for “TATATATATTGTGTATGTACATATATATAAATATTG [XGTACX_site433]”, the “gcPBM binding intensity (ln)” value worked out at 9.15.

Take “ATAATTATATATATATGTACATATTATATATATATA [XGTACX_site4526]”: the “gcPBM binding intensity (ln)” value worked out at 9.15.

Take “ATATACATATATATATGTACTGAAAAGAAAAGAATT [XGTACX_site150]”: the “gcPBM binding intensity (ln)” value amounted to 9.29.

Regarding “CATAAATACATACATACACACATATTTATATTTATA [CACACA_site7071]”, the “gcPBM binding intensity (ln)” value was 9.71.

Regarding “TGTTTTTAAATTTAAATCAAAAAATAAAATAAAATA [GTGCAC_negctrl_site355]”, the “gcPBM binding intensity (ln)” value turned out to be 8.89.

Take “AAGATAACAAGTAATCAATCTAATTATTAATTATAT [CACACA_negctrl_site1713]”: the “gcPBM binding intensity (ln)” value turned out to be 9.15.

Regarding “AAAAGAAAAATGTCATATGATATCATATATTTTATA [GTGCAC_negctrl_site185]”, the “gcPBM binding intensity (ln)” value was determined as 9.01.

“AAAAATATGTGATAATGTACTTTTCATTTTTATTTT [XGTACX_site8544]”: the “gcPBM binding intensity (ln)” value was found to be 9.17.

For the sequence “AAATTATGAACATATTGTACATATATATATATATAT [XGTACX_site8269]”, the “gcPBM binding intensity (ln)” value was 9.12.

For the sequence “AATTAAATTACTTATACACACATAAAATGTCTGTAT [CACACA_site997]”, the “gcPBM binding intensity (ln)” value came out at 9.55.

“CATGTATGTACCATGGTGCAACAATATTTTTAACAA [GTGCAC_site9597]”: the “gcPBM binding intensity (ln)” value came to 8.95.

As for “ATTATATAAATTATATGTACGTATTTTTTTTTTTTT [XGTACX_site1908]”, the “gcPBM binding intensity (ln)” value was 9.26.

On to “GAAAAGAAAAATAAACGTACATAAATATTAACATTA [XGTACX_site8213]”, for which the “gcPBM binding intensity (ln)” value amounted to 9.2.

For the sequence “CAAATAAAAATAAGGAGTACAATTAAAAAAGGAAGG [XGTACX_site4366]”, the “gcPBM binding intensity (ln)” value was 9.59.

For “AAAATAAAAAAGTGTACACATATTAAAATGTATTTA [CACACA_site4424]”, the “gcPBM binding intensity (ln)” value turned out to be 9.33.
